The supplement of paper PMC3334620
Whole data set: some 33,000 sequences, median “E-score (-0.5 to 0.5)” near -0.016, cut for the highest 2% near 0.32. Some of the results follow.

molecular target: T1, Stp1 (UniProt B3LFK1); assay: PBM E-score (8-mer binding enrichment) (E-score (-0.5 to 0.5)); higher = stronger / more preferred TF binding; most listed sequences are background and not binding sites; conditions: protein concentration: 200 nM; construct: GST-full length
T1 sequence: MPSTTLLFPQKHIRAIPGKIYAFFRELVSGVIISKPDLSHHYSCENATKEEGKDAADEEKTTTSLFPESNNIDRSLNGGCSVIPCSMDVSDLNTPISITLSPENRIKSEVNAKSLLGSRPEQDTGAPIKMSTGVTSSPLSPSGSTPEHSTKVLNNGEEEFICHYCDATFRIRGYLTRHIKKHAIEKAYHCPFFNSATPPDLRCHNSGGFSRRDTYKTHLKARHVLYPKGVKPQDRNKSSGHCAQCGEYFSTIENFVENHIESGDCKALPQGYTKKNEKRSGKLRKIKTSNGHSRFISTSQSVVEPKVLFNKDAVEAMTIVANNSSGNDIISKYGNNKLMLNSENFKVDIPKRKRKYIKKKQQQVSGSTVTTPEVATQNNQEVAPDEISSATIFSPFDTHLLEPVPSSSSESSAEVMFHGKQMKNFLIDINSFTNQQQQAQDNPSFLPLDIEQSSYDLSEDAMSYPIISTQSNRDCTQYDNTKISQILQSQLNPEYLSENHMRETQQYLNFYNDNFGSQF
Outline: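 The E-score, a modified Wilcoxon-Mann-Whitney statistic, was computed by the Universal PBM Analysis Suite for every ungapped eight-base word pooled with its reverse complement. Scans behind it were normalised with masliner after bound GST-tagged yeast transcription factors were detected with fluorescent anti-GST. The proteins, at about 100-200 nM, had been applied to universal all-10-mer Agilent arrays made double-stranded by primer extension.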

Sequence	PBM E-score
CGTGTTGC	0.164
CGATCGCG	0.123
CAGCCTCA	-0.134
ACTTTTTC	-0.0491
AAAATAGC	-0.0678
GAGCTTCC	-0.0682
AACACGAC	-0.0456
GGTGTTAC	-0.147
CCACCTCA	-0.19
ACTTAGCA	-0.0458
AATCTCAA	0.0026
GCAGCGGA	-0.0607
AAGTGACA	0.141
GCACTCGC	0.165
GCTCCTCC	-0.216
CACCGCAA	0.0442
AGACAAAA	0.0567
ATGCTGGA	-0.104
TACCCATA	-0.16
GCTAGCAC	-0.181
CACAGGAA	0.0982
GCATTGAC	0.00015
ACAATCGG	0.0293
GGGTGTGA	-0.259
CCTCCGCA	-0.147

Sequence	PBM E-score
CATCCATA	-0.0113
AGGAGTAT	-0.216
CCGATAGC	-0.327
AGTAACGG	0.106
GGGATCAC	-0.188
CGGCCCTC	0.0219
CGCAGACC	-0.0697
ATCTTCTG	0.162
CCCGACGC	-0.122
AGATAGCC	-0.156
AACCCACA	0.0996
CCCGATCA	-0.255
CAGAATTC	-0.0463
CACAGTGG	-0.0956
GGACCGAC	-0.0686
AAGAAGAC	-0.0244
GGGATAGA	-0.148
GATGTGCC	0.185
GACCTGGC	-0.295
AACATGGA	0.0746
GATATTCA	-0.115
CTGCGGAA	-0.0491
AGCGCGAA	0.0676
AATTAGCT	-0.033
GCCCCCCC	-0.243

Sequence	PBM E-score
GACCAGCA	-0.139
AACACCGT	0.116
CTCTCACC	0.0376
CGACATCG	-0.174
GTTATCTA	-0.0892
ACAGCCCT	-0.145
TATTGACA	-0.0359
CCAGGTCC	-0.323
ACGGATAT	0.26
TCCTTGAA	-0.0462
AGGGTTCG	-0.173
ACGCATGC	0.181
CGATAGCG	-0.0295
ACTAAATA	0.199
CCAGCGGA	-0.282
AAGGCTTG	-0.0542
CAACGTAC	0.1
CCCTCTTA	-0.00958
GGATGTTA	0.0805
CTTGCAGA	-0.134
CTCGGAAA	-0.0195
CCAAATAC	-0.0319
ACAACACT	0.0433
ACGCCGTA	0.471
GCATAGGC	-0.113

Sequence	PBM E-score
CACATCCA	0.176
AACATAGC	-0.044
GTCGCGGA	-0.0678
CTATAATA	0.0295
AGGGGTAT	-0.345
CAAGCATA	-0.096
CAAGTTCA	0.00049
GATTATGA	0.108
CTGCAGAA	0.0969
CCGTTCGA	0.279
CGCGGCTC	0.464
GCTTCGGA	-0.0775
AGCTGGTG	-0.105
CATTTAGG	-0.116
ATACAGAA	0.196
CATGGCGG	0.101
CCGTGGCG	0.209
CCTTAAAG	0.0532
GAATTGTA	0.0648
CTTGCAAA	0.184
AGAAACAA	0.274
CATAACCC	-0.0547
AACCACGA	-0.0322
CAGATGCA	-0.293
ATAATCGC	0.137

Sequence	PBM E-score
GTTGGGTA	-0.109
CCCAAGGC	0.282
GGAGGCTA	-0.192
ACCGGTTA	0.018
ACATTAAG	0.034
CCCGCCGA	-0.0885
AATTTTAC	0.222
ACCACGGG	-0.0439
GTGTTATA	0.123
CCAAAAAG	-0.00139
AAAATCCT	-0.0486
ATGCCCGG	-0.208
CCTGGATA	-0.149
GATCGGCC	0.0645
CACTTTTC	0.0895
GTATGCAC	-0.0406
ACCTTTTA	-0.0684
CCGCCGCG	0.437
ATCCTTTG	0.0358
GATTGTGC	0.219
CCTGCCGC	0.226
TCGGTAAA	0.0119
TAAGTTAA	0.0595
ACATCGCG	-0.0486
CGTCAACG	-0.115

Sequence	PBM E-score
ACCAGCTC	-0.142
GCTGCCAC	0.0537
AAGGACAT	0.0391
GAAAAATA	0.159
AGTCTCCG	0.0695
AGATACTC	-0.134
ACTGACGA	-0.0286
ACAGGCCG	-0.0606
AGGAGCCA	-0.164
AACACTCA	0.0656
TGGTGGAA	-0.116
GCAGTGTA	0.142
GAGTACTC	-0.215
AACCAGTG	-0.174
CGAAGCAG	-0.149
ACAGCTGG	-0.193
TTCCTCAA	-0.0575
ACCAAAGT	-0.0235
GTAAAAGA	0.0346
GAACCTTC	-0.0367
GAAAGCGC	0.0424
ATGGCGTG	0.102
ATACCACG	0.113
AGATTCGC	0.0641
CACTGCAG	-0.0936

Sequence	PBM E-score
CCTAGACG	-0.0382
CTAATTTA	0.256
CACTTTAA	-0.0213
CGTGTACA	0.122
CAATCTAG	0.0836
CAACCGGA	-0.0392
CACAGAGA	-0.0444
AAGCCCAA	-0.0515
GCGTGACC	0.0164
GAATATTC	0.214
CGGTAAAA	0.128
GACCTGCC	-0.172
CCTTCCTC	-0.225
CACTAACG	-0.00477
AGTATTAC	0.0906
CGATCCGC	0.123
ACTCGGGA	-0.21
AACGTGGC	0.149
CACAAGGC	0.249
CAGGAGTC	-0.101
CCTGGCTA	-0.107
AGAAATGG	-0.0513
